Some of the results follow. The energies were worked out here from pooled read counts, against the library average; single values are noisy.
Target: T1, Pho4 (S. cerevisiae) (UniProt P07270)
T1 sequence: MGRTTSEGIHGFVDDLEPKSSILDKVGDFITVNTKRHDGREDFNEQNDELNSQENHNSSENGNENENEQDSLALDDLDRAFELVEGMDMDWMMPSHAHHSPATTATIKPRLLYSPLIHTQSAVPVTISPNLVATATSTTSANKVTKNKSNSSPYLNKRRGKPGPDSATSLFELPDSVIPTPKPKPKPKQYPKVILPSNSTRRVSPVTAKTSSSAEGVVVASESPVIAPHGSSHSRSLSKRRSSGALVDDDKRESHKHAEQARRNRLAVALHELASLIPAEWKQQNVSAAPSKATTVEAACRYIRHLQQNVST
Assay: relative binding free energy (BET-seq); higher = weaker binding
Details: reference: library average

Sequence	relative binding free energy [kcal/mol]
TTAATCACGTGTCTGT	0.06
TGGGGCACGTGTCTAT	-0.09
ATGAGCACGTGTGTTA	-0.06
CAAATCACGTGTTGGT	0.06
AGTAACACGTGGGGAA	-0.1
TCGATCACGTGGGGGG	-0.01
TCGAACACGTGTGTGG	0.13
CTTGACACGTGATGTG	0.14
GAGTTCACGTGTAGAT	0.38
TGTCCCACGTGTGGGG	-0.1
TTTTACACGTGCGTGC	0.13
AAAGGCACGTGTAGAT	0.15
ATTGTCACGTGCGGGT	0
AGGCGCACGTGGAGAT	-0.02
TCGGTCACGTGGGATT	-0.12
TTATGCACGTGGACTT	0.08
AGGTGCACGTGGGGCG	-0.15
ATTAGCACGTGTAAAT	0.02
TTGGGCACGTGTACGG	-0.11
CGTGGCACGTGGGGGG	-0.2
CAGGGCACGTGTACTG	0.04
CGTTACACGTGTTGAT	0.03
CTTTGCACGTGAGCTT	0.16

Sequence	relative binding free energy [kcal/mol]
TGAGACACGTGTGGAG	0.17
AGTTACACGTGAGTGA	0.31
GTTATCACGTGAGATG	0.27
TCGACCACGTGTGGGT	-0.05
GCTATCACGTGTAGGG	0.05
CTATTCACGTGGTTGG	0.25
GTGTGCACGTGGGTAG	-0.18
GGGCTCACGTGGATTG	0.19
GTTTTCACGTGCTCTG	0.25
GTTTGCACGTGATGAG	0.26
TTTTGCACGTGGCATT	-0.15
TTCTGCACGTGTCGGA	0.07
TGAGTCACGTGTTCAT	0.11
AAATGCACGTGACGGG	0.03
TTTAGCACGTGATTCG	-0.04
CGTTGCACGTGGTTTG	-0.04
GGTAGCACGTGTTCAT	0
TCTAGCACGTGGAAGT	0.09
TTGATCACGTGTTGTT	0.19
TTTTACACGTGGTCCG	0.05
GTGTGCACGTGTTCTA	-0.07
GGAAGCACGTGTTTAG	-0.04
ATATCCACGTGGGGTA	-0.16

Sequence	relative binding free energy [kcal/mol]
ATAATCACGTGTGGGT	0.16
GGCTTCACGTGTAATT	0.52
TATTGCACGTGGGGTA	-0.1
TTTGGCACGTGCGTTC	-0.14
GGATTCACGTGCAAGG	0.33
AATTTCACGTGGTATG	0.17
AGTGACACGTGATATT	0.3
GGGCGCACGTGGACGG	-0.13
TGTTGCACGTGCTGAA	-0.08
AGGGACACGTGAGATA	0.24
CGGGGCACGTGTCGGC	0
ACATGCACGTGATGTT	0.03
CTGGGCACGTGGCTGT	-0.18
AAGAACACGTGGGTAG	0.09
ATGATCACGTGTGCTG	0.13
CTGGGCACGTGAGAAG	0.22
TCGCACACGTGGGTGT	-0.11
GGTGGCACGTGACAGG	0.09
GTAAACACGTGTGGGG	0.05
CGTATCACGTGGGGCT	-0.2
AGTATCACGTGGGCCT	0.01
GGGTTCACGTGCTCGT	0.27
AGGTGCACGTGTCCGG	0.1

Sequence	relative binding free energy [kcal/mol]
AGAGTCACGTGTAGGG	0.19
GTTGTCACGTGATATG	0.26
TTTTGCACGTGTACGC	0.05
TGAGGCACGTGAATTT	0.24
GGGAACACGTGTGGGT	0.16
ATGTTCACGTGGCGGG	0.13
TATGTCACGTGGGTGT	-0.04
GTGAGCACGTGTTAGA	-0.06
TCAGGCACGTGGTCGG	-0.25
GTTTACACGTGGGCCT	0.09
TTCGGCACGTGGTAGC	-0.07
ATATACACGTGGCATG	-0.05
GAGGACACGTGGGTTG	0.01
TAGTACACGTGGGTCT	-0.04
GAATTCACGTGGATTT	0.4
TTGGGCACGTGGATGT	-0.05
TAGGTCACGTGTTTCG	0.17
GCTTTCACGTGGGGGA	0.02
GTAGTCACGTGAAAGA	0.4
GGTTTCACGTGGCCGG	0.38
TCTTGCACGTGATGGT	0.09
ATTTTCACGTGACGGT	0.41
TGTATCACGTGACGGT	0.21

Sequence	relative binding free energy [kcal/mol]
AGTGGCACGTGAGCAA	0.06
ATTGTCACGTGTGGCA	0.15
CTTGGCACGTGATGTG	-0.04
GGATACACGTGAGTGT	0.27
TAATACACGTGTGTTG	0.05
TAATGCACGTGTTAAT	-0.06
CTGTGCACGTGGATTG	0.06
TTTTCCACGTGGATAT	0.26
CAGTGCACGTGGGGCT	-0.27
AATTTCACGTGTATTG	0.23
CGATTCACGTGAGGTG	0.27
AGGGGCACGTGGCATA	-0.31
TATCGCACGTGTATGT	0.03
CTGGTCACGTGAGTGA	0.38
TATATCACGTGTGATT	0.23
AGCTTCACGTGGGTAG	0.18
ATTTGCACGTGAATGA	0.22
TAGTTCACGTGGTGGC	0.31
TGTGGCACGTGCAGTT	-0.11
GAGGCCACGTGTAAGG	0.19
AAATGCACGTGAGTGT	0.2
AATTGCACGTGAACGG	0.26
TTCTGCACGTGTTCTT	0.09
